Hit rate of the full screen: of about 220,000 compounds, about 5,700 (2.6%) were called active. The inconclusive results got no clear call from the source; some entries with a clear call stand among them for comparison. The call rests on the fitted dose curve; in most records, active means well fitted inhibition curve with a large enough effect; inconclusive means small, poorly fitted or top-dose-only effect; inactive means no such curve, though single readings can be large or run the other way. Potencies of inconclusive entries are doubtful fits and often do not repeat.
Target: Lysine-specific demethylase 5B (Homo sapiens) (UniProt Q9UGL1)
Assay: Primary screen for KDM5B Histone Demethylases FDH-coupled qHTS; further: nearly all actives have a fitted effect of over 70% in size; on activity change, negative = inhibition: 0% is about no effect
Conditions: FDH-coupled NADH fluorescence (FDH is formaldehyde dehydrogenase); activity change, negative = inhibition: at 57.7 µM (top of the series) unless noted
In short: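 Inhibition is measured as reduced NADH fluorescence generation from FDH coupling to formaldehyde release. Truncated KDM5BΔAP at 200 nM final acts on H3K4me3 peptide (12.5 µM in substrate mix) in pH 7.5 HEPES buffer with Tween-20, 30 min, room temperature.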
Potency means the concentration at half of the fitted maximal effect; tags describe the fitted curve by direction and shape.

Chain of UniProt Q9UGL1 (Q9UGL1 whole entry, looked up): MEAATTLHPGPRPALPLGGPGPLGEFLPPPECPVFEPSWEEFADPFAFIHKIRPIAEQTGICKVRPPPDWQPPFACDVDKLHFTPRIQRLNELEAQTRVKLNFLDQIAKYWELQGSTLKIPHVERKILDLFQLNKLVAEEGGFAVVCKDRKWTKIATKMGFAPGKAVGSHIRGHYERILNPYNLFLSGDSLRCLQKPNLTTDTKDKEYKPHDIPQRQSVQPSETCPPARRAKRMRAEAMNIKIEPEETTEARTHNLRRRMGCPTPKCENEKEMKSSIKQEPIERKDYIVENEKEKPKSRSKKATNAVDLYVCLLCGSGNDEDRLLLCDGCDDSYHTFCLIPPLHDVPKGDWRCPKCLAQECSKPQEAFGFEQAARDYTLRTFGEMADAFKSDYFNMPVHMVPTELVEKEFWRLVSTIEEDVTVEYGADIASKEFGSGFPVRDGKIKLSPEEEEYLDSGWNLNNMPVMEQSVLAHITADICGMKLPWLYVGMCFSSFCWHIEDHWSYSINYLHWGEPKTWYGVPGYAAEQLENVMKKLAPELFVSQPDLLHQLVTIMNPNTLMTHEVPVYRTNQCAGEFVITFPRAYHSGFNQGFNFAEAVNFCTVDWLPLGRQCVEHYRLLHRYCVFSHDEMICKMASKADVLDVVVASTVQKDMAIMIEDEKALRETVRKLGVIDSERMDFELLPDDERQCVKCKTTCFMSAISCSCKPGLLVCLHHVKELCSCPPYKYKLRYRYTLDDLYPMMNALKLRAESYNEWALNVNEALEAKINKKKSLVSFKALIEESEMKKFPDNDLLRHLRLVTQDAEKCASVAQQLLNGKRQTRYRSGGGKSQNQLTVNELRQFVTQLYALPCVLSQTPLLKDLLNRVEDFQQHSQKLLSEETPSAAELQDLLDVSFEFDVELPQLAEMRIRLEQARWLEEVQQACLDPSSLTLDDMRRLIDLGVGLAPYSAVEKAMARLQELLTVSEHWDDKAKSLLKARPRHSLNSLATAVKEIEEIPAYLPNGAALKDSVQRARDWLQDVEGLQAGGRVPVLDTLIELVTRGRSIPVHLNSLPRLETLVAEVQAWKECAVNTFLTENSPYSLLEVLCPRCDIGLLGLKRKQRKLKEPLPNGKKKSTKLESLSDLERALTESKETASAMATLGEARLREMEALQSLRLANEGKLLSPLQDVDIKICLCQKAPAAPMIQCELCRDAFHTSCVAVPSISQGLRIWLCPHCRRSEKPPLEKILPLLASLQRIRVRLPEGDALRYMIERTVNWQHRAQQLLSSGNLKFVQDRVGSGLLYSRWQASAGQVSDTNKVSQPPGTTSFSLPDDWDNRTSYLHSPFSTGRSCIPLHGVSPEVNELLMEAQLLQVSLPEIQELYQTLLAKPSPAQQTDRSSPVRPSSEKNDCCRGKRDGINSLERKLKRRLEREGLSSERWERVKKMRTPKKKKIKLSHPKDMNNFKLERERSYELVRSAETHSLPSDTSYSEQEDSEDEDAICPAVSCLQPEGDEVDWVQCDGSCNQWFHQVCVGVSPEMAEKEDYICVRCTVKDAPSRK

SMILES | Potency | activity change, negative = inhibition
COc1ccc(CNc2ccc3cc(S(=O)(=O)N4CCCCC4)ccc3n2)cc1 | inconclusive: 35.5 µM [inhibitor, partial curve, poor fit] | –
O=C(Cc1ccccc1)Nc1c(C(=O)N2CCN(c3ccc(F)cc3)CC2)oc2ccccc12 | inconclusive: 28.2 µM [inhibitor, partial curve, poor fit] | –
Cc1cc(C(=O)N[C@H]2[C@H](O)[C@H](O)C[C@@H]2c2ccc(N3CCOCC3)nc2)n(C)n1 | inconclusive: 35.5 µM [inhibitor, single point] | –
Cc1ccc(-c2cc(NC(=O)C(C)Oc3ccc(C)c(C)c3)on2)cc1 (configuration not stated) | inconclusive: 15.8 µM [inhibitor, partial curve, poor fit] | –
CC(=O)c1cccc(NC(=O)CCCN2C(=O)COc3ccc(C)cc32)c1 | inconclusive: 14.1 µM [inhibitor, partial curve, poor fit] | –
COc1cccc(CNC(=O)Cn2ccn3nc(-c4ccc(F)cc4)c(CO)c3c2=O)c1 | inconclusive: 44.7 µM [inhibitor, partial curve, poor fit] | –
O=C(Nc1cccc(F)c1)C1CCCN(c2nnc(-n3cccc3)s2)C1 (configuration not stated) | – | inactive: 8.67%
CC(C)OCCCNC(=S)NC1CCCC1 | inconclusive: 25.1 µM [inhibitor, partial curve, poor fit] | –
COc1ccc(-c2cc3ccc(OS(=O)(=O)c4ccccc4)cc3oc2=O)cc1OC | inconclusive: 39.8 µM [inhibitor, single point] | –
CC(NC(=O)c1nn(C)c2c1CSc1ccccc1-2)c1ccccc1 (configuration not stated) | inconclusive: 7.94 µM [inhibitor, partial curve, poor fit] | –
COc1ccc(-c2cc(N3CCCN(C(=O)C4CCN(C(=O)c5ccccc5)CC4)CC3)n[nH]2)cc1 | inconclusive: 14.1 µM [inhibitor, partial curve, poor fit] | –
CCC(=O)N1CCc2sc(C(=O)NCc3ccc4c(c3)OCO4)cc2C1 | – | inactive: -11.9%
O=C(NCCOc1ccccc1)c1cnc2c(c1)N(C(=O)Cc1ccc(O)cc1)CCC2 | inconclusive: 35.5 µM [inhibitor, partial curve, poor fit] | –
COc1cccc(-c2n[nH]c(=O)c3c2C(c2ccc(C(C)(C)C)cc2)n2nnnc2N3)c1 (configuration not stated) | inconclusive: 5.01 µM [inhibitor, full curve, poor fit] | –
CCCCOc1ccc(C(=O)N2CCC(c3nc4ccccc4o3)CC2)cc1 | inconclusive: 28.2 µM [inhibitor, single point] | –
CC(=O)Nc1c(-c2ccccc2)nc2ccc(Cl)cn12 | inconclusive: 28.2 µM [inhibitor, single point] | –
O=C(N[C@H](CO)Cc1ccccc1)c1nc(-c2cccc3[nH]ccc23)no1 | – | inactive: -21.4%
CCOC(=O)c1ccc(NC(=O)C2=C(C)Nc3nc(SCc4ccc(Cl)cc4)nn3C2c2ccc(C)cc2)cc1 (configuration not stated) | inconclusive: 31.6 µM [inhibitor, single point] | –
Cc1cn2nc(C(=O)NC3CCCCCC3)cc2c(N2CCCC2)n1 | active: 6.31 µM | –
CC(Oc1ccc2ccc(=O)oc2c1)C(=O)NCCc1ccc(S(N)(=O)=O)cc1 (configuration not stated) | inconclusive: 31.6 µM [inhibitor, partial curve, poor fit] | –
COc1ccc(/C=C/C(Cc2cccc(C(C)=O)c2)c2ccc(C)cc2)cc1 (configuration not stated) | inconclusive: 22.4 µM [inhibitor, single point] | –

SMILES | Potency | activity change, negative = inhibition
CC(C)(C)c1ccc(Oc2nc3ccccn3c(=O)c2/C=C(\C#N)c2nc3ccccc3[nH]2)cc1 | inconclusive: 15.8 µM [inhibitor, single point] | –
CNC(=O)CCn1ncc2cc(OCc3ccccc3-c3cccc(OC)c3)ccc21 | inconclusive: 35.5 µM [inhibitor, single point] | –
COc1ccc(OC)c(NC(=O)c2ncoc2-c2ccc(C)o2)c1 | inconclusive: 28.2 µM [inhibitor, single point] | –
O=C(CCC(=O)N1CC2CCCN2c2ccccc21)NCc1ccccc1 (configuration not stated) | inconclusive: 17.8 µM [inhibitor, partial curve, poor fit] | –
O=C(Cc1ccc(F)cc1)N1CCC2(CC1)NC(=O)N(c1ccc(F)cc1)N2 | inconclusive: 28.2 µM [inhibitor, partial curve, poor fit] | –
CCCCN(CC)CCNC(=O)c1cc2c(-c3ccccc3F)nn(C)c2s1 | inconclusive: 28.2 µM [inhibitor, partial curve, poor fit] | –
Cc1c(CNCc2ccccc2)c(C(=O)O)c(C)n1Cc1ccc(F)cc1Cl | – | inactive: -8.6%
COc1ccc(/C=C(/C#N)c2nc3ccccc3[nH]2)c2ccccc12 | inconclusive: 39.8 µM [inhibitor, partial curve, poor fit] | –
CCn1cc(CNC(=O)Nc2ccc(Cl)c(Cl)c2)c(C)n1 | – | inactive: 14.1%
CCN(CC)c1ccc(-c2nn3c(-c4ccccc4C)nnc3s2)cc1 | inconclusive: 15.8 µM [inhibitor, partial curve, poor fit] | –
Cc1cc(OCC(=O)NCc2cccnc2)c2c(C)cc(=O)oc2c1 | inconclusive: 14.1 µM [inhibitor, partial curve, poor fit] | –
O=C(NCCCN1CCN(c2cccc(Cl)c2)CC1)Nc1ccccc1C(F)(F)F | – | inactive: -11.7%
Cc1cccc(N(CC(=O)NCCSCc2ccc(Cl)cc2)S(C)(=O)=O)c1C | inconclusive: 2.82 µM [inhibitor, partial curve, poor fit] | –
COc1ccc(NC(=O)c2ccnc(-c3nnc4ccc(Nc5ccccc5)nn34)c2)cn1 | active: 31.6 µM | –
COc1ccccc1Cn1c(CNS(=O)(=O)c2ccccc2Cl)nc2cccnc21 | inconclusive: 25.1 µM [inhibitor, single point] | –
CC(NCc1cccc(C#N)c1)c1ccc(Cl)cc1Cl (configuration not stated) | inconclusive: 1.78 µM [inhibitor, partial curve, poor fit] | –
Cc1ccc2c(C(=O)N3CCOCC3)cc(NC(=O)C(C)C)cc2n1 | active: 22.4 µM | –
N#C/C(=C\c1cccc2ccccc12)c1nc2ccccc2[nH]1 | inconclusive: 39.8 µM [inhibitor, single point] | –
COc1cc(OC)cc(C(=O)Nc2ccc3oc(-c4ccc5ccccc5c4)nc3c2)c1 | inconclusive: 3.16 µM [inhibitor, full curve, poor fit] | –
CC(=O)Nc1cc(-c2cn(C)c(=O)n3cc(COc4ccc(Cl)cc4)nc23)ccn1 | inconclusive: 10 µM [inhibitor, full curve, poor fit] | –
O=C(O)/C(=C\c1ccc(OCc2ccccc2)cc1)NC(=O)c1ccccc1 | – | inactive: 4.84%

SMILES | Potency | activity change, negative = inhibition
Cc1noc(C)c1CN1CCc2nc(C(=O)Nc3ccccc3)oc2CC1 | inconclusive: 28.2 µM [inhibitor, partial curve] | –
O=c1c2ccccc2c(-c2ccccc2)nn1Cc1nc(-c2ccc(Br)cc2)no1 | – | inactive: 6.37%
O=C1c2c(nc(CNCc3cccc(Cl)c3)n2Cc2ccccc2)NCCN1CCOc1ccccc1 | inconclusive: 39.8 µM [inhibitor, single point] | –
CN1CCCCCC(O)c2cc(C(=O)NCCN3CCOCC3)ccc21 (configuration not stated) | inconclusive: 14.1 µM [inhibitor, partial curve, poor fit] | –
CCOc1cc(CNC(=O)CCCn2c(=O)c3cccn3c3cccnc32)cc(OCC)c1OCC | inconclusive: 28.2 µM [inhibitor, partial curve, poor fit] | –
COc1ccccc1-c1nc(C#N)c(NCc2ccc(F)cc2)o1 | inconclusive: 22.4 µM [inhibitor, partial curve, poor fit] | –
Cc1ccc(C(c2cccc(Br)c2)c2cn(C)c3ccccc23)s1 (configuration not stated) | – | inactive: -7.02%
CCc1ccccc1NC(=O)CSc1ncc(S(=O)(=O)c2ccccc2)c(N)n1 | inconclusive: 31.6 µM [inhibitor, single point] | –
COc1cc2c(cc1OC)CN(c1ccc3ccccc3n1)CC2 | inconclusive: 28.2 µM [inhibitor, partial curve, poor fit] | –
CCNC(=S)N/N=C(/C)c1ccccc1Br | – | inactive: 15.8%
CN(Cc1nc2ccccc2s1)C(=O)c1cccc(S(=O)(=O)Nc2ccccc2F)c1 | – | inactive: 7.09%
CCC1(N2CCN(C(=O)c3ccc(Cl)cc3OC)CC2)CCN(C(=O)NC)C1 (configuration not stated) | inconclusive: 39.8 µM [inhibitor, single point] | –
COCc1nc(C2CC(N)C2)cc(N(C)Cc2nc3ccccc3c(=O)[nH]2)n1 (configuration not stated) | inconclusive: 11.2 µM [inhibitor, partial curve] | –
CCOC(=O)c1ccccc1NC(=O)CN1C(=O)CC(c2ccco2)Sc2ccccc21 (configuration not stated) | inconclusive: 28.2 µM [inhibitor, partial curve, poor fit] | –
COc1ccc2[nH]cc(CCNC(=O)C3CCCN(S(C)(=O)=O)CCC(=O)NCC3)c2c1 (configuration not stated) | inconclusive: 31.6 µM [inhibitor, partial curve, poor fit] | –
CCOc1ccc(N/C=C/C(=O)c2ccc(C)cc2)cc1 | – | inactive: -20.2%
OC[C@H]1C[C@@H](NCc2cccc(Cl)c2)[C@H](O)[C@@H]1O | inconclusive: 31.6 µM [inhibitor, partial curve, poor fit] | –
O=C(c1cc(Cl)c2c(c1)OCCO2)N1CCSc2ccccc21 | – | inactive: 15.7%
CN(C)S(=O)(=O)c1ccc(CNC(=O)C2CCCN(CC(N)=O)C2)cc1 (configuration not stated) | inconclusive: 39.8 µM [inhibitor, single point] | –
CC(C)[C@]1(O)CN(C(=O)Cn2[nH]c3ccccc3c2=O)C[C@H]1C | inconclusive: 25.1 µM [inhibitor, partial curve] | –
